{"source": "ChEMBL document CHEMBL5308541", "about": "“MAIP: An Open-Source Tool to Enrich High-Throughput Screening Output and Identify Novel, Druglike Molecules with Antimalarial Activity” (ACS Med Chem Lett, 2023)", "note": "In all, about 150,000 compounds went through this assay and about 540 (0.36%) showed an effect of 50% or more. The list shows a part of the results."}
{"system": "Plasmodium falciparum", "assay": "Primary screen in NF54 nanoGlo assay, in single point, at 2uM, 72h; a lower Z score goes with more inhibition", "assay_type": "functional, Erythrocyte", "conditions": "timepoint 72 hour", "units": {"% Inhibition": "%"}}
{"smiles": "CC[C@@](C)(CNC(=O)c1ccc(-c2cnco2)cc1)NC(=O)c1ccc(-c2cnco2)cc1", "% Inhibition": -7, "Z score": 1.15}
{"smiles": "CC(C)(C)n1cc(Nc2nc3ccccc3o2)cn1", "% Inhibition": -7, "Z score": 1.31}
{"smiles": "COc1ccc(-c2cc(C)no2)cc1S(=O)(=O)N1CCC[C@H](CN2CCc3ccccc3C2)C1", "% Inhibition": -12, "Z score": 2.05}
{"smiles": "Cc1ccc(NCCCN[C@H]2CCN(c3ccc(F)cc3)C2)nc1", "% Inhibition": 0, "Z score": 0.04}
{"smiles": "NC(=O)c1cc(N2CC[C@H](OCCN3CCCCC3)C2)ccn1", "% Inhibition": 5, "Z score": -1.1}
{"smiles": "Cc1ccnc(Nc2nc(C)c(C(=O)N3CCC(C(N)=O)(N4CCCCC4)CC3)s2)c1", "% Inhibition": 2, "Z score": -0.39}
{"smiles": "OC[C@H](Cc1c[nH]c2ccccc12)NCc1ccc(N2CCCC2)nc1", "% Inhibition": 8, "Z score": -1.18}
{"smiles": "CCOc1ccc2nc(CNCc3ccc4[nH]c(=O)[nH]c4c3)ccc2c1", "% Inhibition": 16, "Z score": -2.74}
{"smiles": "Cc1ccccc1C(NC(C)c1ccc(=O)[nH]n1)C1CCCC(C)C1", "note": "(stereo unspecified)", "% Inhibition": -1, "Z score": 0.12}
{"smiles": "Fc1ccc(-c2nn(CC3OCCO3)cc2Br)cc1", "% Inhibition": 12, "Z score": -2.16}
{"smiles": "COc1ccc(OCCN2CCN([C@@H](C)C(=O)c3c(C)[nH]c4ccccc34)CC2)cc1", "% Inhibition": 7, "Z score": -1.47}
{"smiles": "C#CCN(C)S(=O)(=O)c1cnc(N2CCCC2)c(C(F)(F)F)c1", "% Inhibition": 4, "Z score": -0.77}
{"smiles": "COc1cncc(C(=O)N(C)[C@H]2CCN(C3CCN(C)CC3)C2)n1", "% Inhibition": -7, "Z score": 1.1}
{"smiles": "c1cc(-c2ccnc(NCC3(N4CCOCC4)CCCCC3)n2)ccn1", "% Inhibition": -7, "Z score": 1.21}
{"smiles": "CCN(C)CCNc1cc(C)nc(C)n1", "% Inhibition": 37, "Z score": -8}
{"smiles": "C[C@H](NCc1ccccc1-c1ccc(CN(C)C)cc1)C(=O)Nc1ccc(Cl)cn1", "% Inhibition": -5, "Z score": 0.77}
{"smiles": "O=C(C[C@H]1CCOC1)NCC1(CN2CCCC2)CC1", "% Inhibition": 6, "Z score": -1.2}
{"smiles": "c1cnc(-c2ccnc(N[C@H]3CCCN(CCN4CCOCC4)C3)n2)cn1", "% Inhibition": -8, "Z score": 1.63}
{"smiles": "Cc1nc2c(NC(=O)N(C)[C@@H](C)c3ccc4c(c3)OCCO4)cccn2n1", "% Inhibition": -6, "Z score": 1.07}
{"smiles": "O=C(NCCc1ccc(F)cc1)[C@H]1CCCN(c2cc(-n3ccc4ccccc43)ncn2)C1", "% Inhibition": -2, "Z score": 0.39}
{"smiles": "Cc1ccc2c(c1)c1ccccc1n2Cc1ccc(N(C)C)cc1", "% Inhibition": 0, "Z score": 0.03}
{"smiles": "COc1ccccc1C(=O)CNC(=O)c1ccnc2ccccc12", "% Inhibition": -3, "Z score": 0.49}
{"smiles": "c1ccc(-c2cc(CN3CCC(Oc4cnccn4)CC3)no2)cc1", "% Inhibition": -10, "Z score": 1.84}
{"smiles": "CC(C)c1noc([C@@]23CCC[C@@H]2CN(CCN2CCCOCC2)C3)n1", "% Inhibition": 4, "Z score": -0.55}
{"smiles": "O=C(NCCNc1cccnc1)c1cccc(-c2cn[nH]c2)c1", "% Inhibition": -16, "Z score": 2.7}
{"smiles": "CC1(C)CN(c2ncnc3c2ncn3CC2(CO)COC2)CCN1CCO", "% Inhibition": -6, "Z score": 0.98}
{"smiles": "CC(C)Nc1ncc(C(=O)N[C@H]2CCCN(CC3CCCCC3)C2)cn1", "% Inhibition": -5, "Z score": 0.94}
{"smiles": "COc1ccccc1-c1cc(CNc2cc(C(C)C)nc3ccnn23)on1", "% Inhibition": 2, "Z score": -0.39}
{"smiles": "CN(C(=O)OC(C)(C)C)[C@H](CNc1ncnc2c1cnn2C)Cc1ccccc1", "% Inhibition": 4, "Z score": -0.77}
{"smiles": "COc1ccc(C2NCC(c3ccc(N(C)C)cc3)c3c2[nH]c2ccccc32)cc1", "note": "(stereo unspecified)", "% Inhibition": -8, "Z score": 1.3}
{"smiles": "O=C(c1cc2c(OC(F)(F)F)cccc2[nH]1)N1CC[C@H](CN2CCOCC2)C1", "% Inhibition": -17, "Z score": 3.56}
{"smiles": "CCc1ccc(-c2c(C)n[nH]c2COC)cc1", "% Inhibition": -7, "Z score": 1.16}
{"smiles": "O=C(c1cc(-c2ccccc2O)[nH]n1)N1CCC(Nc2ncccn2)C(O)C1", "note": "(stereo unspecified)", "% Inhibition": -1, "Z score": 0.11}
{"smiles": "CN(C)Cc1noc2ccc(NC(=O)Cc3c[nH]c4ccccc34)cc12", "% Inhibition": -4, "Z score": 0.75}
{"smiles": "CCc1nc2cc(-c3ccc(O)c(OC(F)(F)F)c3)cnc2[nH]1", "% Inhibition": -8, "Z score": 1.56}
{"smiles": "C[C@H](NCc1cccc(-c2cnn(C)c2)c1)C1CCC(F)(F)CC1", "% Inhibition": 12, "Z score": -1.8}
{"smiles": "Cc1ccc(C)c([C@H](C)NC(=O)CN2CCC(N3CCN(CCO)CC3)CC2)c1", "% Inhibition": 0, "Z score": 0.06}
{"smiles": "CCN1CCN(C2CCN(C(=O)c3ccc(-c4ccsc4)nc3N3CCC[C@H](CO)C3)CC2)CC1", "% Inhibition": -18, "Z score": 3.21}
{"smiles": "Oc1cccc2ccc(CNc3cccc(Cl)c3)nc12", "% Inhibition": -12, "Z score": 2.13}
{"smiles": "O=c1c2ccccc2[nH]c2ccc(OS(=O)(=O)c3ccc(F)c(Cl)c3)cc12", "% Inhibition": -22, "Z score": 3.39}
{"smiles": "COc1ccc(-c2ccnc(C3CCN(c4ccnc(C#N)n4)CC3)n2)cc1", "% Inhibition": -1, "Z score": 0.14}
{"smiles": "OC[C@H]1CCCCN1CCNCc1ccc(CN2CCCCC2)s1", "% Inhibition": -4, "Z score": 0.76}
{"smiles": "CCNc1cc(C)nc(NCCNC(=O)Nc2cc(F)cc(F)c2)n1", "% Inhibition": 79, "Z score": -17.07}
{"smiles": "Cc1c(-c2cnn(C)c2)nc(N)c(C#N)c1-c1c[nH]c2ccccc12", "% Inhibition": 5, "Z score": -0.86}
{"smiles": "COc1ccc(CN(Cc2cccnc2)C(=O)NCC(C)(C)C)c(OC)c1", "% Inhibition": -2, "Z score": 0.31}
{"smiles": "NCC[C@H]1CN(C(=O)c2cccc(-c3nc4ccccc4[nH]3)c2)CCO1", "% Inhibition": -12, "Z score": 2.08}
{"smiles": "CC1Oc2ccccc2OC1C(=O)N(CCn1cccn1)c1nc2c(C(F)(F)F)cccc2s1", "note": "(stereo unspecified)", "% Inhibition": 5, "Z score": -0.74}
{"smiles": "Cc1ccc(OC(F)F)c(CNC(=O)Cc2c[nH]c3ncccc23)c1", "% Inhibition": 1, "Z score": -0.21}
{"smiles": "CC(C)C(=O)N1CCC(Nc2nc(-c3cccnc3)nc3c2cnn3C)CC1", "% Inhibition": -1, "Z score": 0.13}
{"smiles": "COc1ccccc1[C@@H]1CCCN1CCCN1CCN(C(C)C)CC1", "% Inhibition": -3, "Z score": 0.57}
{"smiles": "CCN(C)c1ccc(-c2c(-c3ccccc3)ncn2CCCNC)cc1", "% Inhibition": 9, "Z score": -1.71}
{"smiles": "CC[C@@H](c1cnn(C)c1)n1cnc(-c2ccccc2)c1-c1cnc(OC)nc1", "% Inhibition": 3, "Z score": -0.47}
{"smiles": "O=C1COc2cc(-c3nc(COc4ccccc4)nn3CCO)ccc2N1", "% Inhibition": -7, "Z score": 1.12}
{"smiles": "COc1ccc(-c2cc(C(=O)Nc3ccc(N4CCN5CCCC5C4)cc3)c3c(C)noc3n2)cc1", "note": "(stereo unspecified)", "% Inhibition": 27, "Z score": -4.67}
{"smiles": "COc1ccc2sc(Nc3cccc(C)c3C)nc2c1", "% Inhibition": -4, "Z score": 0.57}
{"smiles": "COc1ccc2nc(C)cc(C(=O)N[C@H](c3ccccc3)C3CC3)c2c1", "% Inhibition": -9, "Z score": 1.65}
{"smiles": "CCc1cc(CN2CC(O)C(Cc3ccnc4ccccc34)C2)on1", "note": "(stereo unspecified)", "% Inhibition": 2, "Z score": -0.4}
{"smiles": "CC[C@H](O)CN1CCC(NC(=O)c2noc(-c3cccnc3)n2)CC1", "% Inhibition": 22, "Z score": -3.8}
{"smiles": "O=C(c1cc(-c2ccc3c(c2)OCO3)n[nH]1)N1CCC(Oc2ccc(Cl)cn2)CC1", "% Inhibition": -16, "Z score": 2.85}
{"smiles": "CN(CC(F)(F)F)C(=O)COc1ccc2ncccc2c1", "% Inhibition": -8, "Z score": 1.82}
{"smiles": "Fc1ccccc1CN1CCC(CNC2CCN3CCCC3C2)CC1", "note": "(stereo unspecified)", "% Inhibition": 14, "Z score": -2.92}
{"smiles": "O=C(CNC1(c2ncccn2)CCOCC1)Nc1cccc(Cl)c1", "% Inhibition": 3, "Z score": -0.41}
{"smiles": "O=C(c1ccnc(OCC2CCOCC2)c1)N1CCC(Oc2cnccn2)CC1", "% Inhibition": 0, "Z score": 0.03}
{"smiles": "O=C(NCc1ccc([C@@H](O)c2cccs2)s1)c1nc2ccccc2s1", "% Inhibition": -7, "Z score": 1.26}
{"smiles": "c1ccc(CN2CCC(NCCCc3nc4ccccc4[nH]3)CC2)nc1", "% Inhibition": 0, "Z score": 0.06}
{"smiles": "COC(=O)CCN(C(=O)c1ccc(C)nc1C)c1ccccc1C", "% Inhibition": 2, "Z score": -0.43}
{"smiles": "C[C@H]1C(=O)NCCN1S(=O)(=O)Cc1ccccc1C(F)(F)F", "% Inhibition": 6, "Z score": -0.97}
{"smiles": "Cc1cc(F)ccc1NC(=O)CCNc1nccc(N2CCC[C@H](O)C2)n1", "% Inhibition": -14, "Z score": 2.92}
{"smiles": "c1ccc2nc(NCc3n[nH]c4ncccc34)cnc2c1", "% Inhibition": -10, "Z score": 1.5}
{"smiles": "COC(=O)CN(CCN1CCOCC1)Cc1ccc2cnccc2c1", "% Inhibition": 1, "Z score": -0.15}
{"smiles": "c1ccc(CCCN2CCCN(Cc3cnc4cnccn34)CC2)cc1", "% Inhibition": 3, "Z score": -0.53}
{"smiles": "CN(CCNC(=O)c1cccc(-c2ncc[nH]2)c1)CCc1ccccc1", "% Inhibition": -7, "Z score": 1.06}
{"smiles": "CC1CCN(C[C@H]2CCCN(Cc3noc(-c4cccc(Cl)c4)n3)C2)CC1", "% Inhibition": 2, "Z score": -0.37}
{"smiles": "COc1ccc2[nH]c(CNc3cc(N4CCC(O)CC4)ncn3)cc2c1", "% Inhibition": 2, "Z score": -0.34}
{"smiles": "CCN(CCOc1ccccc1Cl)C(=O)NCc1n[nH]c(N)n1", "% Inhibition": 4, "Z score": -0.74}
{"smiles": "O=C(NCC1CCN(CCc2ccc(F)cc2)CC1)c1cnc(N2CCCCC2)c2ccccc12", "% Inhibition": -5, "Z score": 0.93}
{"smiles": "O=C(CN1CCC(c2ccccc2)CC1)N1CCC2NCCCC2(CO)C1", "note": "(stereo unspecified)", "% Inhibition": -2, "Z score": 0.42}
{"smiles": "CN(C)CCCN1CC2(CCC1=O)CCN(Cc1ccc3[nH]ccc3c1)CC2", "% Inhibition": -9, "Z score": 1.54}
{"smiles": "Cc1nc2ccc(CNC3CCN(c4ccc(F)c(F)c4)CC3)cc2[nH]1", "% Inhibition": 25, "Z score": -4.47}
{"smiles": "CN1CCC(N2CCN(Cc3c(Cl)ccc(O)c3Cl)CC2)CC1", "% Inhibition": -11, "Z score": 1.6}
{"smiles": "Cn1ncc2c(N)nc(N3CC4CCC3CN(Cc3ccccc3)C4)nc21", "note": "(stereo unspecified)", "% Inhibition": -3, "Z score": 0.51}
{"smiles": "Cc1ccc(OC2CCN(c3nc(N)c4cnn(C)c4n3)CC2)nc1", "% Inhibition": -5, "Z score": 0.89}
{"smiles": "Nc1nccc(-c2cccc(C(=O)N3CC(O)C(N4CCCCC4)C3)c2)n1", "note": "(stereo unspecified)", "% Inhibition": -4, "Z score": 0.65}
